Assay results as given in the supplement of paper PMC3334620.
The full ranking holds about 33,000 sequences; the median of “E-score (-0.5 to 0.5)” is about -0.056, and the highest 2% start at about 0.38. The list shows a part of the results.

What follows are sequences tested against Stb4 (UniProt P50104) (assay: PBM E-score (8-mer binding enrichment) (E-score (-0.5 to 0.5)); higher = stronger / more preferred TF binding; most listed sequences are background and not binding sites). Settings: protein concentration: 200 nM; construct: GST-DNA-binding domain.
Outline: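 Detection of bound protein used fluorescent anti-GST, with scans normalised by masliner. The proteins were GST-tagged yeast transcription factors applied at about 100-200 nM to universal all-10-mer Agilent arrays made double-stranded by primer extension. Each ungapped eight-base word, pooled with its reverse complement, was scored with an E-score from the Universal PBM Analysis Suite.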

Sequence | PBM E-score
AGCTACCC | 0.0422
ATTATGCC | 0.102
ACAACCGA | 0.316
CGACCGTC | -0.0817
AGCGCGCG | -0.156
AATTCACT | -0.0731
ATCCTCAC | -0.0216
ATTGAAGA | -0.16
ACAGTCCT | -0.338
AAACCTCG | 0.17
TCGCACCA | -0.0752
CGCACGGA | 0.326
GAGATTAC | 0.196
CTACACCC | 0.057
CGGTCGCC | 0.113
GCGGCCAC | -0.125
TTACCCAA | -0.217
ACCACACT | -0.0748
CGGTATCC | 0.247
CTGAGGGC | -0.361
ATAAATAT | 0.0712
GACGAAGA | -0.0979
ATAATTGA | -0.0432
TAGCTTGA | -0.109
CCCTCGCG | 0.0204

Sequence | PBM E-score
TAGTGCGA | -0.0885
CGTGTAAC | -0.0163
ATCCCTCC | 0.129
ACCTCGGC | 0.415
ACAGTGCC | 0.145
GACTTAGC | -0.14
ACTTGTAG | -0.0622
TCCTCGAA | -0.296
GAAAATTC | 0.144
ATCCGCAC | 0.37
CCATAAAG | -0.183
AGACGCAT | -0.0866
ATCTTGCC | -0.0102
GGATACAC | 0.196
CACAATCA | -0.0537
CTAGTTTC | 0.147
GAACCGCC | 0.0632
TCCCCGGA | 0.301
CGTTCGCC | 0.0826
CAGGGGAA | -0.0991
CGTAAGGC | -0.197
CTGATAAC | -0.12
ATCTAAAA | 0.0488
CGCACTCC | -0.0375
AATTTTTC | 0.153

Sequence | PBM E-score
ACCCGAAT | 0.425
ACTGACTG | -0.092
TAATACTA | 0.0864
AACGGACA | 0.0833
AGGCGTAC | -0.177
ACGGAGCC | 0.248
CCTAATGC | -0.332
GACGAGGC | -0.0506
TCTTCCAA | -0.0347
TAGCCACA | -0.126
AACACCTT | -0.00623
AGTAGACT | -0.143
GACGTTCC | 0.115
GAATACTA | 0.0368
ATAGGTTA | 0.0289
TGGGGAAA | -0.111
CGGTCCTA | 0.0807
ACATTGCT | -0.233
CTTGTTGA | -0.107
AATTCTAA | 0.0655
AAACATCG | -0.00353
CAGCATAA | -0.185
CCTAAATC | 0.0193
CATAAAAA | -0.144
GGATTCAA | -0.0277

Sequence | PBM E-score
GCCCATCC | 0.0741
AATCGGCT | 0.344
CAAAGTTC | 0.0445
CTTATTAA | 0.0696
AGTATTCG | 0.147
CAGGGCAG | -0.114
CATTGTGC | -0.178
TACTAACA | -0.177
CGGCGGCC | 0.0617
CAGGAGAA | -0.107
AATCCGTG | 0.172
CGTGCGGA | 0.151
CTAGGTTC | 0.126
GGTACACA | -0.0472
CACAGATG | -0.0862
ACACCGCG | -0.0623
GAACCGGC | 0.262
CCTTATCA | -0.109
CCTGTGAG | -0.288
ACATTCTC | -0.0633
ACCCAGAC | 0.076
GCGTTACA | -0.0322
GCAGCAGA | -0.244
ATCTGTGG | -0.127
GCCCTGTA | -0.201

Sequence | PBM E-score
AGTACTTC | 0.117
GTTTTCTA | 0.0512
ATAATCCG | 0.295
GCAAAAAA | 0.137
ATTCCGGA | 0.405
GAAAAAGA | 0.0739
TATAATGA | -0.0464
CAGGAATC | -0.0371
CGTATCCC | -0.13
AGAACCAG | -0.0906
CGCACCAG | -0.0613
GGTTCAAA | 0.138
ATTAAGTG | -0.0009
GCGCCACC | -0.095
GCGCGGGA | 0.166
ATTTCATC | -0.0624
CAGACGCC | -0.127
ATTTGCAG | -0.0442
GCGTTCCA | -0.104
CCGCCCAA | 0.0632
AGGCGAAG | -0.162
CCTTGGCC | -0.199
CAACGCTC | -0.251
CAGAGGAG | -0.255
GCGTTTCC | 0.25

Sequence | PBM E-score
AGTCGTAG | -0.16
GCATATTA | -0.0183
AGCGTGAT | -0.0713
GTACGTCA | -0.143
TACAGGAA | 0.0531
CTACCTTA | -0.0673
ATGATTCG | 0.0336
GAGTTCTA | -0.185
CCTTTCAC | -0.119
ATTGGCCG | 0.18
AGGGGTGA | -0.407
CAAACGGG | 0.106
CTCGCTGA | -0.1
CCGCAGCG | 0.0883
GAACCGTA | 0.0316
GCGTAAAC | 0.079
ATAAAACG | 0.0566
ACTTTGGC | 0.123
ACTATCGA | -0.253
GGCACAAC | 0.039
CAAAGGTA | -0.0824
TGTTCCAA | -0.163
CCTCACAC | -0.293
ACTACTGC | -0.181
GTTCCTAA | -0.00986

Sequence | PBM E-score
ACATTGAC | -0.158
CCAACTCA | -0.0892
GCATGAGA | -0.241
CGAGCTCC | 0.188
CACATCTA | 0.0376
GTACCCAA | -0.0334
CAGAACCC | 0.0311
CTGCCCTC | -0.295
GACTAGTC | -0.224
AGTATACC | 0.0367
GCGACCAC | 0.0307
AGAACCGA | 0.288
AGGCGACA | -0.1
ATACATTA | -0.113
GATATGGA | 0.0856
AGGTTCGG | 0.403
ATCCGTGG | 0.345
AATCCGAA | 0.42
GCATTTCA | -0.0146
CAGGGAAA | -0.035
AAGCTGGC | -0.0422
AGACCGGC | 0.0653
